Data on 23 compounds can be found in PubChem BioAssay AID1346428 (National Center for Advancing Translational Sciences (NCATS), 2018).

Hit rate of the full screen: of about 48,000 compounds, about 1,200 (2.5%) were called active. Inconclusive results (about 2%) are left out.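 The calls were made as follows: active = activation of at least 60% and not above a set upper limit (about 1 call in 100 departs from these limits); inconclusive = activation of 40% to 60%, or above that upper limit; inactive = activation under 40%.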 This is one part of the list.

Chain of UniProt O75388 (O75388 whole entry, looked up): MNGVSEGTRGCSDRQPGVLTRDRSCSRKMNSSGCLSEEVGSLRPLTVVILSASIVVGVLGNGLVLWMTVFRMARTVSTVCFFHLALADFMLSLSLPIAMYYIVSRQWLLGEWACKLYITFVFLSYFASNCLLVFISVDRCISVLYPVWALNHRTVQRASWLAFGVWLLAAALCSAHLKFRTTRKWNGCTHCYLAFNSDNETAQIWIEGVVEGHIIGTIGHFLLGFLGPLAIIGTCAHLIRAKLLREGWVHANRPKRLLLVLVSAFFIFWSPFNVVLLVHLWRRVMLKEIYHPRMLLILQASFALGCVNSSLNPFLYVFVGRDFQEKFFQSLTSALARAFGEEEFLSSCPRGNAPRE

In the assay the target is Probable G-protein coupled receptor 32 (Homo sapiens) (UniProt O75388). The experiment in a line: qHTS for Agonists of Human Resolvin D1 Receptor DRV1. Also: 0% is about no effect. Conditions: CHO-K1 GPR32 beta-arrestin PathHunter luminescence, 90 min; at 76.9 µM; stronger effect = higher value; zero percent set by DMSO-only wells. Summed up:
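PathHunter beta-arrestin recruitment in CHO-K1 cells stably expressing ProLink-tagged GPR32. Cells were exposed to compound for 90 min at 37 C, then chemiluminescence was read after 1 h detection at ambient temperature; DMSO served as basal control.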
For the compound `COc1ccc(NC(=O)c2c(N)c(C(=O)c3ccc(OC)cc3)n3ccccc23)cc1`, the activation is inactive: 8.94%.

As for `CCCn1c(/C=C/c2ccccc2)nc2ccccc21`, the activation is inactive: 2.43%.

On to `CCn1c2ccccc2c2cc(CN3CCN(Cc4ccc(OC)c(OC)c4)CC3)ccc21`, for which the activation is inactive: -22.4%. Take `CCOc1ccc(CC(=O)NCCS(=O)(=O)N2CCN(c3ccc(OC)cc3)CC2)cc1`: the activation was inactive: -14.1%. Regarding `COc1ccc(C(C(=O)Nc2ccc(C(C)C)cc2)N(C)C(=O)Cc2cccs2)cc1` (stereo not drawn), the activation was inactive: -26.4%. As to `O=C(Nc1ccc(OC(F)(F)F)cc1)C1CCCN(S(=O)(=O)c2ccc(Br)s2)C1` (stereo not drawn), the activation was inactive: -10.6%.

As for `O=C(Cc1csc2ccccc12)NCc1ccc(F)cc1`, the activation is inactive: -18.7%. As for `Cc1ccccc1Nc1nnc(-c2ccc(C)c(S(=O)(=O)N3CCN(C)CC3)c2)c2ccccc12`, the figure is inactive: 7.83%; as for `COc1ccc(S(=O)(=O)NC(C)C)cc1-n1cnnn1`, inactive: -2.91%; as for `COc1ccc(C(=O)NCC(c2cccnc2)N2CCN(c3ccccc3OC)CC2)cc1` (stereo not drawn), inactive: 12.6%. On to `COc1cccc(NC(c2nnc(-c3ccccc3)o2)c2ccc(F)cc2Cl)c1` (stereo not drawn), for which the activation is inactive: -13.2%. On to `COc1ccc(Br)cc1CNC(=O)CN1C(=O)CCCc2ccccc21`, for which the activation is inactive: 20.9%. With `CC(C)(C)c1ccc(C(=O)Nc2nc3nc(-c4ccccc4)cc(=O)n3[nH]2)cc1` the figure was inactive: 47.6%; with `Cc1ccc(NC(=O)Cn2c(SCc3cccc(F)c3)nc3ccncc32)c(C)c1`, inactive: -0.997%; with `C#CC(C)(CC)NC(=O)Cn1nnc(-c2ccc(OCc3ccccc3Cl)cc2)n1` (stereo not drawn), inactive: 9.7%. As for `COCCCNC(=O)C1CCCN(c2ncnc3onc(C)c23)C1` (stereo not drawn), the figure is inactive: 26.5%; as for `COc1ccc(CCNC(=O)c2ccc3c(Cl)c4c(nc3c2)CCCC4)cc1OC`, inactive: 24.3%; as for `Cc1c(CCC(=O)NCc2ccc(F)cc2)c(=O)oc2cc(O)ccc12`, inactive: -0.264%. Regarding `CCCN(CCC)C(=O)c1c[nH]c2ccc(S(=O)(=O)N(C)c3ccc(OCC)cc3)cc2c1=O`, the activation is inactive: -6.92%. With `Cc1ccccc1OCC(=O)Nc1ccc(C(=O)OCc2cc(=O)n3c(C)csc3n2)cc1` the figure was inactive: -11.7%; with `CCc1ccc(C(=O)c2cn(CC(=O)Nc3ccc4c(c3)OCCO4)c3ccc(CC)cc3c2=O)cc1`, inactive: 9.27%; with `Cc1ccc2oc(C(=O)Nc3nc(-c4ccc(F)cc4)ns3)c(C)c2c1`, inactive: -0.157%. For the compound `COc1ccc(C2c3c(oc4cc(C)cc(C)c4c3=O)C(=O)N2Cc2ccco2)cc1OC` (stereo not drawn), the activation is inactive: 11.1%.
